According to a collection of fitness landscapes (doi:10.1126/science.1257360):
Some of the results follow.

B1: PhoQ; a variant is named by its letters at X, in order, P23837 (parent)
chain: MKKLLRLFFPLSLRVRFLLATAAVVLVLSLAYGMVALIGYSVSFDKTTFRLLRGESNLFYTLAKWENNKLHVELPENIDKQSPTMTLIYDENGQLLWAQRDVPWLMKMIQPDWLKSNGFHEIEADVNDTSLLLSGDHSIQQQLQEVREDDDDAEMTHSVAVNVYPATSRMPKLTIVVVDTIPVELKSSYMVWSWFIYVLSANLLLVIPLLWVAAWWSLRPIEALAKEVRELEEHNRELLNPATTRELTSLVRNLNRLLKSERERYDKYRTTLTDLTHSLKTPLXXLQXXLRSLRSEKMSVSDAEPVMLEQISRISQQIGYYLHRASMRGGTLLSRELHPVAPLLDNLTSALNKVYQRKGVNISLDISPEISFVGEQNDFVEVMGNVLDNACKYCLEFVEISARQTDEHLYIVVEDDGPGIPLSKREVIFDRGQRVDTLRPGQGVGLAVAREITEQYEGKIVAGESMLGGARMEVIFGRQHSAPKDE

Variants of: B1
Assay: enrichment ratio after two sorts for PhoP signalling (ratio (wild type AVST 3.29)); higher = more functional
Conditions: with PhoP (E. coli)

Variant | enrichment ratio
DMRL | ≤ 0.25
YTVP | ≤ 0.25
WNVV | ≤ 0.25
KDSH | ≤ 0.25
DLCP | ≤ 0.25
ACIQ | 11.8
IRAN | ≤ 0.25
GSNG | ≤ 0.25
TLMH | ≤ 0.25
GEQI | ≤ 0.25
SGLP | ≤ 0.25
APPR | ≤ 0.25
NMFY | ≤ 0.25
HLVY | ≤ 0.25
VRYH | ≤ 0.25
FRHD | ≤ 0.25
LQCF | ≤ 0.25
DHND | ≤ 0.25
AITL | 24.3
HEYF | ≤ 0.25
TVQF | 1.22
LWEH | ≤ 0.25
PDIA | ≤ 0.25
KNTA | ≤ 0.25
IDPY | ≤ 0.25

Variant | enrichment ratio
HKIW | ≤ 0.25
EAQV | ≤ 0.25
NCKC | ≤ 0.25
GFVK | ≤ 0.25
DDGK | ≤ 0.25
VKTN | ≤ 0.25
KSNM | ≤ 0.25
YDMC | ≤ 0.25
YSKH | ≤ 0.25
NWST | ≤ 0.25
HWNY | ≤ 0.25
NPNV | ≤ 0.25
NRYY | ≤ 0.25
KLIM | ≤ 0.25
MVQY | ≤ 0.25
KCPQ | ≤ 0.25
QEAL | ≤ 0.25
GPAW | ≤ 0.25
RPFH | ≤ 0.25
VQPW | ≤ 0.25
YQAA | ≤ 0.25
PLHD | ≤ 0.25
DGNC | ≤ 0.25
MKRT | ≤ 0.25
KHNL | ≤ 0.25

Variant | enrichment ratio
VTPM | ≤ 0.25
AVSA | 5.47
RQLR | ≤ 0.25
RRYR | ≤ 0.25
YMWN | ≤ 0.25
EKPL | ≤ 0.25
HWHT | ≤ 0.25
VCVG | ≤ 0.25
PQYI | ≤ 0.25
TWYD | ≤ 0.25
SHSN | ≤ 0.25
HTPR | ≤ 0.25
RKDA | ≤ 0.25
CTFT | ≤ 0.25
RSVN | 0.329
PDQS | ≤ 0.25
PPSV | ≤ 0.25
DMTM | ≤ 0.25
AHFR | ≤ 0.25
QGYT | 1.7
DMDR | ≤ 0.25
KTLN | ≤ 0.25
KMPV | ≤ 0.25
SDIA | ≤ 0.25
PKGG | ≤ 0.25

Variant | enrichment ratio
LGEK | ≤ 0.25
PFFF | ≤ 0.25
GVDD | ≤ 0.25
ECNR | ≤ 0.25
QMYY | ≤ 0.25
DWSW | ≤ 0.25
DLGF | ≤ 0.25
CTLI | ≤ 0.25
SSQP | ≤ 0.25
THTK | ≤ 0.25
IPHK | ≤ 0.25
PRWL | ≤ 0.25
VFNI | ≤ 0.25
EQFC | ≤ 0.25
GSTH | ≤ 0.25
NLTM | ≤ 0.25
VEDR | ≤ 0.25
DPKI | ≤ 0.25
VTEA | ≤ 0.25
EFIN | ≤ 0.25
HGMF | 1.21
LKFG | ≤ 0.25
IPTE | ≤ 0.25
MIGC | 41.4
VRLC | ≤ 0.25

Variant | enrichment ratio
FYWI | ≤ 0.25
PTMI | ≤ 0.25
PKAK | ≤ 0.25
SACG | 8.77
RCED | ≤ 0.25
GSIK | ≤ 0.25
RETW | ≤ 0.25
DHQA | ≤ 0.25
KKVM | ≤ 0.25
ITIM | ≤ 0.25
AHIV | ≤ 0.25
ICNP | ≤ 0.25
NGRI | ≤ 0.25
RPMG | ≤ 0.25
HTKW | ≤ 0.25
MNDR | ≤ 0.25
RIIP | ≤ 0.25
SVLA | 7.25
YWDH | ≤ 0.25
TWHC | ≤ 0.25
VTFV | ≤ 0.25
VPLL | ≤ 0.25
KAIS | ≤ 0.25
ADIS | ≤ 0.25
VHHS | ≤ 0.25

Variant | enrichment ratio
VSCV | 7.54
LCVG | ≤ 0.25
MRDF | ≤ 0.25
DNWI | ≤ 0.25
RTNR | ≤ 0.25
LYCI | ≤ 0.25
TCHT | ≤ 0.25
GEQP | ≤ 0.25
KLGE | ≤ 0.25
KTWS | ≤ 0.25
YGLD | ≤ 0.25
HPQV | ≤ 0.25
WIHT | ≤ 0.25
WQVM | ≤ 0.25
RFFW | ≤ 0.25
AERP | ≤ 0.25
FFLD | ≤ 0.25
MLDS | ≤ 0.25
VSNL | ≤ 0.25
TSTN | 4.72
HFYA | ≤ 0.25
EYFL | ≤ 0.25
MDME | ≤ 0.25
IDPL | ≤ 0.25
VGDG | ≤ 0.25

Variant | enrichment ratio
YTIP | ≤ 0.25
NTTA | ≤ 0.25
RTPQ | ≤ 0.25
VDKE | ≤ 0.25
EPIQ | ≤ 0.25
ADRL | ≤ 0.25
QIMV | ≤ 0.25
KEAS | ≤ 0.25
RSPY | ≤ 0.25
PFWN | ≤ 0.25
VVSM | 0.673
EPTT | ≤ 0.25
GGPM | ≤ 0.25
FKTT | ≤ 0.25
VHTA | ≤ 0.25
AQAS | 18.6
TDCL | 1.96
AKAW | ≤ 0.25
WKTP | ≤ 0.25
IGFM | ≤ 0.25
AHSC | ≤ 0.25
SMDY | ≤ 0.25
QFDF | ≤ 0.25
MPWG | ≤ 0.25
VQRV | ≤ 0.25

Variant | enrichment ratio
YKQI | ≤ 0.25
SVWY | ≤ 0.25
LFGS | ≤ 0.25
SPHW | ≤ 0.25
APMH | ≤ 0.25
IYHC | ≤ 0.25
KTWC | ≤ 0.25
ATVL | 4.07
TKPE | ≤ 0.25
LAWE | ≤ 0.25
ACAC | ≤ 0.25
SCHS | ≤ 0.25
LMWQ | ≤ 0.25
HTGI | ≤ 0.25
THQM | ≤ 0.25
MPIA | ≤ 0.25
QPEA | ≤ 0.25
EALE | ≤ 0.25
RDRI | ≤ 0.25
YITT | 0.342
